Counter-ions that a name gives are not always drawn. ± gives the standard deviation of the averaged measurements. The list shows a part of the results.
System: hAMSC donor 1
Assay: transfection efficiency (EGFP+ cells / Hoechst count) fold change vs vehicle control (ratio); hAMSC are human adipose-derived mesenchymal stem cells given an EGFP-luciferase plasmid by lipofection; higher = enhanced transfection
Conditions: priming compound concentration 100 µM
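Further: compounds added 30 min before Lipofectamine 3000 lipoplex transfection, triplicate means relative to DMSO vehicle wells on the same plate, luciferase RLU normalized to BCA total protein.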

Compound | transfection efficiency
CC(C)(C)NCC(O)c1cc(O)cc(O)c1 (centres undefined) [Terbutaline sulfate] | 0.984 ± 0.31
CC1=C(/C=C/C(C)=C/C=C/C(C)=C\C(=O)O)C(C)(C)CCC1 [Isotretinoin] | 0.18 ± 0.026
CC[C@H](C)C(=O)O[C@H]1C[C@@H](C)C=C2C=C[C@H](C)[C@H](CC[C@@H]3C[C@@H](O)CC(=O)O3)[C@H]21 [Lovastatin] | 1.31 ± 0.36
CN1CCC(=C2c3ccccc3C=Cc3ccccc32)CC1 [Cyproheptadine hydrochloride] | 1.86 ± 0.48
C=CCc1ccc(O)c(-c2ccc(O)c(CC=C)c2)c1 [Honokiol] | 0.21 ± 0.11
CC(C)Oc1ccc2c(=O)c(-c3ccccc3)coc2c1 [Ipriflavone] | 1.74 ± 0.15
CC[C@@]1(O)C(=O)OCc2c1cc1n(c2=O)Cc2cc3c(CN(C)C)c(O)ccc3nc2-1 [Topotecan hydrochloride] | 1.47 ± 0.16
CN(C)CCCSc1ccccc1NC(=O)/C=C/c1ccccc1 [Cinanserin] | 1.01 ± 0.14
CC(=O)OCC(CCn1cnc2cnc(N)nc21)COC(C)=O [Famciclovir] | 0.999 ± 0.15
C[C@](N)(Cc1ccc(O)cc1)C(=O)O [alpha-Methyl-L-tyrosine] | 0.554 ± 0.17
C=CC1=C(C(=O)O)N2C(=O)[C@@H](NC(=O)/C(=N\O)c3csc(N)n3)[C@H]2SC1 [Cefdinir] | 0.962 ± 0.34
COc1ccc(CC(C)NCC(O)c2ccc(O)c(NC=O)c2)cc1 (centres undefined) [Formoterol fumarate dihydrate] | 1.32 ± 0.26
Cc1nc(=O)c2cc(CN(C)c3ccc(C(=O)N[C@@H](CCC(=O)O)C(=O)O)s3)ccc2[nH]1 [Raltitrexed] | 0.747 ± 0.24
CC(C)[N+](C)(CCOC(=O)C1c2ccccc2Oc2ccccc21)C(C)C [Propantheline bromide] | 0.78 ± 0.27
COCCOC(=O)C1=C(C)NC(C)=C(C(=O)OC(C)C)C1c1cccc([N+](=O)[O-])c1 (centres undefined) [Nimodipine] | 0.866 ± 0.14
CN(C)CCOC(c1ccc(Cl)cc1)c1ccccn1 (centres undefined) [Carbinoxamine maleate] | 1.29 ± 0.16
CC(C)c1ccc2c(c1)c(SC(C)(C)C)c(CC(C)(C)C(=O)O)n2Cc1ccc(Cl)cc1 | 0.373 ± 0.1
CCN1CCN(c2cc3c(cc2F)c(=O)c(C(=O)O)cn3C2CC2)CC1 [Enrofloxacin] | 1.08 ± 0.33
CN[C@H]1CC[C@@H](c2ccc(Cl)c(Cl)c2)c2ccccc21 [Sertraline hydrochloride] | 0.151 ± 0.14
CC(=O)S[C@@H]1CC2=CC(=O)CC[C@]2(C)[C@H]2CC[C@@]3(C)[C@@H](CC[C@@]34CCC(=O)O4)[C@H]12 [Spironolactone] | 0.849 ± 0.3

Compound | transfection efficiency
O=C(CCCN1CCC(O)(c2ccc(Cl)cc2)CC1)c1ccc(F)cc1 [Haloperidol hydrochloride] | 1.97 ± 0.36
CCCCN1CCCC1CNC(=O)c1cc(C#N)c2ccccc2c1OC (centres undefined) [Nafadotride] | 0.964 ± 0.46
O=C(CCNNC(=O)c1ccncc1)NCc1ccccc1 [Nialamide] | 1.16 ± 0.21
NS(=O)(=O)c1cc(C(=O)O)c(NCc2ccco2)cc1Cl [Furosemide] | 0.754 ± 0.27
CCN(CC)CC(=O)Nc1c(C)cccc1C [Lidocaine] | 0.745 ± 0.1
O=C1CC2(CCCC2)CC(=O)N1CCCCN1CCN(c2ncccn2)CC1 [Buspirone hydrochloride] | 0.866 ± 0.072
Cc1cccc(CN2CCN(C(c3ccccc3)c3ccc(Cl)cc3)CC2)c1 (centres undefined) [Meclizine hydrochloride] | 0.527 ± 0.098
C[C@@](Cc1ccc(O)c(O)c1)(NN)C(=O)O [Carbidopa] | 1.58 ± 0.15
C#C[C@]1(O)CC[C@H]2[C@@H]3CCc4cc(OC)ccc4[C@H]3CC[C@@]21C [Mestranol] | 0.678 ± 0.19
CC1(C)S[C@@H]2[C@H](NC(=O)Cc3ccccc3)C(=O)N2[C@H]1C(=O)O [Penicillin G potassium] | 0.683 ± 0.32
O=C1[C@H](CC[C@H](O)c2ccc(F)cc2)[C@@H](c2ccc(O)cc2)N1c1ccc(F)cc1 [Ezetimibe] | 0.399 ± 0.13
Nc1nc2c(ncn2COC(CO)CO)c(=O)[nH]1 [Ganciclovir] | 1.09 ± 0.36
Nc1c2c(nc3ccccc13)CCCC2 [Tacrine hydrochloride] | 0.835 ± 0.072
CCN1CCC[C@H]1CNC(=O)c1cc(S(N)(=O)=O)ccc1OC [Levosulpiride] | 0.677 ± 0.17
Cn1ccnc1S [Methimazole] | 1.74 ± 0.31
COc1cc([C@@H]2c3cc4c(cc3[C@@H](O[C@@H]3O[C@@H]5CO[C@@H](C)O[C@H]5[C@H](O)[C@H]3O)[C@H]3COC(=O)[C@H]23)OCO4)cc(OC)c1O [Etoposide] | 1.21 ± 0.38
OCc1cccnc1 [3-Pyridinemethanol] | 0.771 ± 0.089
C[C@H]1C[C@@H]2[C@H]([C@@H](O)C[C@@]3(C)[C@H]2CC[C@]3(O)C(=O)CO)[C@@]2(C)C=CC(=O)C=C12 [Methylprednisolone] | 2.87 ± 0.41
COC(=O)[C@H](c1ccccc1Cl)N1CCc2sccc2C1 [Clopidogrel] | 0.857 ± 0.062

Source: the supplement of paper PMC7238544
